Where “and” joins values, the source holds several entries; their conditions need not be identical. Equal entries are not always repeated. Screen size: about 220,000 compounds; about 16,000 (7.3%) were called active. Inconclusive results, whose numbers are uncertain, are shown with a selection of clear calls. Calls follow the shape of the dose curve; as a rule, active = well fitted inhibition curve with a large enough effect (not every such curve was filed as active); inconclusive = small, poorly fitted or top-dose-only effect, or another doubt; inactive = no such curve, though single readings can be large or run the other way. Where the call is inconclusive, the potency comes from a doubtful curve fit.
Target: Aldehyde dehydrogenase 1A1 (Homo sapiens) (UniProt P00352)
UniProt P00352, sequence (P00352 whole entry, looked up): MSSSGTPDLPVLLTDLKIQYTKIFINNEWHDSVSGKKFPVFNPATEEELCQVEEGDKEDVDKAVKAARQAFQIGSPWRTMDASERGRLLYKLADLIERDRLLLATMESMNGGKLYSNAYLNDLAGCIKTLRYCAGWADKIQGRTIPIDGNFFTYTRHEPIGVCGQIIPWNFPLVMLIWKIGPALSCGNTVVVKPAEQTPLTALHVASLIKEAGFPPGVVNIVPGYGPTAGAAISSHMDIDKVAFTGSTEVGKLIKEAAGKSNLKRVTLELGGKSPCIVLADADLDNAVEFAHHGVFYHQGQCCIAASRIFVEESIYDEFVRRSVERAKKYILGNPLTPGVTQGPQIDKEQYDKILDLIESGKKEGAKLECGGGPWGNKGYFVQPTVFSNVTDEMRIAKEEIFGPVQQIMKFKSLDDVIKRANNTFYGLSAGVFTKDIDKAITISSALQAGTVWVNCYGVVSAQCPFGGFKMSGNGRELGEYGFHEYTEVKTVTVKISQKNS
Test: qHTS Assay for Inhibitors of Aldehyde Dehydrogenase 1 (ALDH1A1)
Conditions: Purified ALDH1A1, NADH fluorescence, propionaldehyde substrate; series mostly up to 75.3 µM
Potency is read from the fitted curve at half-maximal effect; tags tell the direction and shape of the fitted curve.

Potency, inconclusive:
Clc1cc(Br)ccc1OCCN1CCOCC1 39.8 µM [inhibitor, single point], CN(/N=C/c1ccco1)C1=NS(=O)(=O)c2ccccc21 37.7 µM [inhibitor, single point], CCN(CC)c1ccc(/C=N/NC(=O)Cc2cccs2)cc1 12.6 µM [inhibitor, partial curve], O=C(NCc1ccccc1)C1=C[C@@H](c2csc3ccccc23)C[C@@H](OCc2ccc(CO)cc2)O1 44.7 µM [inhibitor, single point], S=c1[nH]ncn1/N=C/c1ccccn1 35.5 µM [inhibitor, single point], O=C(CSc1ncn[nH]1)c1ccco1 39.8 µM [inhibitor, single point], O=C(Nc1ccccc1C(F)(F)F)c1cc(-c2cccc(O)c2)on1 3.16 µM [inhibitor, full curve], Cc1ccc(C(=O)N2CCN(c3ccc(NC(=S)NC(=O)Cc4ccccc4)cc3)CC2)cc1 17.8 µM [inhibitor, partial curve], O=C(NC1CCCCC1)c1nc2c(nnn2Cc2ccccc2Cl)c(=O)[nH]1 39.8 µM [inhibitor, single point], O=C(C1CCN(S(=O)(=O)c2cccc3cccnc23)CC1)N1CC=C(c2ccccc2)CC1 25.1 µM [inhibitor, single point], Nc1nc(-c2cccs2)c(CC(=O)O)s1 3.98 µM [inhibitor, full curve], Cc1ccc2nc(CSc3nnc(Nc4ccccc4C)s3)cc(=O)n2c1 20 µM [inhibitor, single point], O=C(NC1CCN(Cc2ccccc2)C1)c1cc(COc2ccc(F)cc2F)on1 (stereo not drawn) 35.5 µM [inhibitor, single point], CCCCNC(=O)c1ccc2c(c1)N(CC)C(=O)CS2 17.8 µM [inhibitor, partial curve], CCOC(=O)C1C(c2ccc(O)c(O)c2)NC(=S)NC1(O)C(F)(F)F (stereo not drawn) 17.8 µM [inhibitor, partial curve], CS(=O)(=O)c1ccc(Cl)c(NC(=O)CCc2ccccc2)c1 28.2 µM [inhibitor, single point], C=CCn1c(SCC(=O)Nc2cc(C)nn2-c2ccccc2)nnc1C1CCCCC1 39.8 µM [inhibitor, single point], COc1ccc(-c2ccc3nnc(SCC(N)=O)n3n2)cc1 39.8 µM [inhibitor, single point], Cc1cccc(C2=NN(c3ccc(Br)cc3)[C@@H](C(=O)N3CCOC3=O)[C@@H]2c2ccc(F)cc2)c1 12.6 µM [inhibitor, partial curve] and 28.2 µM [inhibitor, partial curve], Nc1ncnc2nc(-c3ccc(N4CCOCC4)nc3)cc(-c3cccc(Br)c3)c12 39.8 µM [inhibitor, single point], CCOc1ccc(-c2nc(C#N)c(NC3CC3)o2)cc1 12.6 µM [inhibitor, partial curve], Cc1nnc(SCc2nnc(-c3ccccc3Br)o2)s1 20 µM [inhibitor, partial curve], CN(Cc1ccco1)c1ncnc2ccc(-c3cccnc3)cc12 3.16 µM [inhibitor, partial curve], COCCCNCCCCOc1c(Cl)cc(C)cc1Br 31.6 µM [inhibitor, single point], CCCc1[nH]nc2c1C(c1ccc(OC)cc1OC)C(C#N)=C(N)O2 (stereo not drawn) 39.8 µM [inhibitor, single point], CCOC(=O)N1CCC2(CC1)CC(=O)c1c(ccc3oc(C(=O)O)c(C)c13)O2 31.6 µM [inhibitor, partial curve], CCCC(=O)Nc1ccc2c(c1)C(=O)N(CCC(=O)O)C2=O 31.6 µM [inhibitor, single point]

Potency, active:
O=C(c1ccc2nc(-c3ccco3)c(-c3ccco3)nc2c1)N1CCN(c2ccccc2)CC1 8.91 µM, CC1CCN(c2nc3c(c(=O)[nH]c(=O)n3C)n2CCCc2ccccc2)CC1 31.6 µM, Cc1ccc(NCCC(=O)c2ccc(Cl)cc2)cc1 1.41 µM, CCC(c1nnc(SCC(=O)NCCc2ccc(Cl)cc2Cl)o1)N(C)C (stereo not drawn) 15.8 µM, COc1cc(N=c2ssnc2Cl)cc(OC)c1 0.316 µM, COCCn1c(SCC(=O)N2CCCc3ccccc32)nc2ccccc2c1=O 25.1 µM, CN(C)c1ccc(C(=O)OCC(=O)NCCC2=CCCCC2)cc1 35.5 µM, Cc1sc(NC(=O)c2ccc(F)cc2)c(CN2CCCCCC2)c1C 10 µM

Potency, inactive:
COc1ccc(-c2[nH]ncc2CN2CCC(N3CCSCC3)CC2)cc1F, CSC(=S)N(C)C1CCS(=O)(=O)C1 (stereo not drawn), COc1cc(Cl)cc(NC(=O)CCN2CCN(C)CC2)c1, CN1CCN(C2=Nc3ccccc3Sc3ccc(Cl)cc32)CC1, O=C(CNC(=O)c1ccco1)OCc1c(F)cccc1Cl, CC(Nc1ccccc1)c1cc(Cl)ccc1O (stereo not drawn), C(=N\n1cnnc1)/c1cccs1, O=C(N/N=C/c1ccc(Br)cc1)c1ccccc1-n1cccc1, CCCCn1c(SCC(=O)NC(=O)NCc2ccco2)nc2cc(S(N)(=O)=O)ccc21, CO/N=C/NC(=O)c1c(OC)ccnc1Oc1cccc(C(F)(F)F)c1, Cc1cccc(N2CCN(C(=O)c3csc4ccccc34)CC2C)c1 (stereo not drawn), O=C(COc1ccc(Cl)cc1)NNC(=O)c1ccccn1, COc1cc(=O)[nH]c(SCc2c(F)c(F)c(F)c(F)c2F)n1

Reference: PubChem BioAssay AID1030 (National Center for Advancing Translational Sciences (NCATS), 2008)
